From PMC12136788
Some of the results follow.

T1: UNK ZnF1-3 (human, UniProt Q9C0B0 31-174)
T1 sequence: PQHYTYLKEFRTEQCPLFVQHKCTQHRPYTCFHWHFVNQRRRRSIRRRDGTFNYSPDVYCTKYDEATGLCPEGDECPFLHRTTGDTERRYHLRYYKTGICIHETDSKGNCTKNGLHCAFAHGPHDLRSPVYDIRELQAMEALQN

B1: chrX:98862621:98862622:+_ENSMUSG00000034160_ENSMUST00000044475|mus_hu|mus_mus_mus_hu_False|48_88 (ssRNA)
RNA: GGGAGUUCUACAGUCCGACGAUCCUGCAUCUCCUUUAGAGUGUUUCCCAUAUUGGAGUAGGCAUCAGCAAAGGUAGGACUGAUUCGUAUGGCUUCUUUAUAAUGCAUCAGAGCUUCCUGCAGUUUUCCCUGCUGCUGCAGUACCAACAGAGGAUUGAGCAUCA
B2: chr11:66627819:66627820:+_ENSG00000173621_ENST00000309602|hu_mus|FALSE|FALSE (ssRNA)
RNA: GGGAGUUCUACAGUCCGACGAUCCUUGGUGGCUCUGAGCACCUGUUGGUGGGACCUGUCCCUUUAGUCUGGAGGCCAAAACCAAGGAAAGGGUUUGCUGUCCCACCAAGUACAUGGGGGCCUGAGGUACUGAGGAUAAAAAGCCAACAGAGGAUUGAGCAUCA
B3: 239353028_239353148_847_CDS_ENSG00000065802_ENST00000264607|human|control|control (ssRNA)
RNA: GGGAGUUCUACAGUCCGACGAUCGAAGUCAGGGUUCGCGCCAGCCAGGAGGAGCAGCCGGAAGCACUGGAGGUUGUGGUAGGCUGCGCUGAUGUACAAGGGGCAGACCACCAAGGAGGUGAGCCGCCGGGAGAAUCGAGGCUGCAACAGAGGAUUGAGCAUCA
B4: 54627192_54627312_8999_3pUTR_ENSG00000094916_ENST00000209875|human|control|control (ssRNA)
RNA: GGGAGUUCUACAGUCCGACGAUCCACCACCAGCCCUCGUUUAGAAUCCAAUCCUAAAGCUACCGGAAACCAGAACACUGACUUGAGCCUUAAGAGUGUUGUGACAUGAUUAAACUGUCUUUUCAGGUGUUCUCAAAGAAUUUCCAACAGAGGAUUGAGCAUCA
B5: chr18:9257185:9257186:+_ENSG00000101745_ENST00000400020|hu_hu|motif|central (ssRNA)
RNA: GGGAGUUCUACAGUCCGACGAUCUUGGAAUUGUUUGGUAUGUUCACAAAUGACAGAAGGCAUGCUACAUCUUCGAACUUCGGUGGUAGGUCUCCCCUCGCUUAUAAUUAGUUUAACAUCUUCUACAGAAGAUGACCUAAGAUGCAACAGAGGAUUGAGCAUCA
B6: chr11:75113396:75113397:+_ENSG00000149273_ENST00000524851|hu_mus|FALSE|FALSE (ssRNA)
RNA: GGGAGUUCUACAGUCCGACGAUCCCCUCCAAGGAGUUUGUAGCGUAGAGACUCUGCCUGGGCAAUGGCACACAGACCUCUUGUGGCCACUUUCUCUGCAUAAAGCUCUACGCUGCCUUCAGGGAAGCCAAAGCGCUUCUGGACCAACAGAGGAUUGAGCAUCA
B7: chr9:21312366:21312367:-_ENSMUSG00000032180_ENSMUST00000034698|mus_mus|FALSE|FALSE (ssRNA)
RNA: GGGAGUUCUACAGUCCGACGAUCAGGGUGGGGGGCAGCACCACAGCUUCACCCCAUCCUGAUAGCUGCAAGACUGAAGCUAAGGCACGAUUUCAGGAGAAAGCCAGGGCAUCCAAGAGCAGUGUCCCCACACUGCUGCGCCCACAACAGAGGAUUGAGCAUCA
B8: chr17:37360870:37360871:+_ENSG00000108298_ENST00000225430|hu_mus|FALSE|FALSE (ssRNA)
RNA: GGGAGUUCUACAGUCCGACGAUCCCGCUAUGUACAGACACGAGGGAAGCUUUAUUUCUUGGUCUCCUCCUCCUUGGACAGAGUCUUGAUGAUCUCUUCCUUCUUGGCCUGGAGGCGCUCCUCCCGGCGCUUUCGUGCUUCCUUCAACAGAGGAUUGAGCAUCA
B9: chr7:157177620:157177621:+_ENSG00000105993_ENST00000429029|hu_mus|motif|central (ssRNA)
RNA: GGGAGUUCUACAGUCCGACGAUCGCCCAUUCCACUGCCGCCAAAUGACGUUGAAGAAAAUGAAGUGAGACCCCCAUGACCGGGUGACCCAAAUGGAGUGAAGCCUGUAUCAAAAGCAGGAAAUCCACUUCCAAAAGAAGGAAACAACAGAGGAUUGAGCAUCA
B10: chr19:42880530:42880531:+_ENSG00000105429_ENST00000334370|hu_hu|FALSE|FALSE (ssRNA)
RNA: GGGAGUUCUACAGUCCGACGAUCUGCCAGGAAGGGCUCAGAGCGGCGGAAGGCGGGAGGUGGGAGCCCAGCCGGCUUCCAGGCGGAGGCCGGGGCAGUAGGGUCAGGUGGGAAGCAGACGGUGACCUUGGCGAAGGGGCGGCUCAACAGAGGAUUGAGCAUCA
B11: 80223426_80228509_597_CDS_ENSG00000135338_ENST00000369846|human|control|control (ssRNA)
RNA: GGGAGUUCUACAGUCCGACGAUCUGGUAGACCCUUAGGGCUUGGUUUCCGAGGGGCUUGGUGAUGUACUUGGCCAUCUGAAGUUUGUCUUUUAGGAUUUUUUCUCCUAACACUUGCAGGUGAAGAACUGACCAGCGAUGAUCGCAACAGAGGAUUGAGCAUCA
B12: chr5:100466915:100466916:-_ENSMUSG00000029328_ENSMUST00000153442|mus_mus|FALSE|FALSE (ssRNA)
RNA: GGGAGUUCUACAGUCCGACGAUCAGCACAAAUCCAAAUCCUCUUGAUCUUCCCGUGACUGGGUCUGUUUUAAUUGUGCAGUCUACCACUUCCCCAAAUCGAGACAAAUAUUCAGUCAGAUCUUUCUUGCUUGUAUCCCAGCUCCAACAGAGGAUUGAGCAUCA
B13: chr4:38126685:38126686:+_ENSG00000065882_ENST00000510573|hu_hu|FALSE|FALSE (ssRNA)
RNA: GGGAGUUCUACAGUCCGACGAUCGUCUUUUCCAUCUGUACCAAGCCAAGGUUGGGUAGCGUGCUUUUUAUAAAGUCAACUAUGGUUUCUAGGUUUUCAUGCUGCAGAAUCAAGGGCUUAUGGCUUCCCAACAGACUUAAAGCCCAACAGAGGAUUGAGCAUCA
B14: chr13:48919227:48919228:+_ENSG00000139687_ENST00000267163|hu_mus|motif|central (ssRNA)
RNA: GGGAGUUCUACAGUCCGACGAUCCUUGGUACUGGUAUCGAUUUCUUUUAAUAAGUCAAAGAAUUUAUAGACACUGGUUUCGGUGCUUUUCUGUAGCUCAGUAAAAGUGAAUGGCAUCUCAUCUAGAUCAACUGCUGCGAUAAACAACAGAGGAUUGAGCAUCA

These binders were tested against T1, UNK ZnF1-3 (assay: nsRBNS (natural sequence RNA bind-n-seq); RBNS binding buffer (assumed for nsRBNS): 25 mM Tris pH 7.5, 150 mM KCl, 3 mM MgCl2, 0.01% Triton X-100, 500 ug/ml BSA, 20 U/ml SUPERase-In, 4 C; UNK is unkempt and MSI1 is Musashi-1; names of the RNAs are library labels; protein concentration not given here; high values mean tight binding).

Going from B1 to B2, the binding signal rises from 0.956 enrichment R to 1.15 enrichment R.

First: B3
Second: B4
The binding signal of the first is lower: 0.561 enrichment R for the first, 1.51 enrichment R for the second.

First: B5
Second: B6
The binding signal of the first is higher: 0.843 enrichment R for the first, 0.689 enrichment R for the second.

Compared with B7, B8 is lower in binding signal: 0.827 enrichment R for the first, 0.577 enrichment R for the second.

Going from B9 to B10, the binding signal rises from 1.27 enrichment R to 2.07 enrichment R.

Going from B11 to B12, the binding signal rises from 0.569 enrichment R to 1.06 enrichment R.

Going from B13 to B14, the binding signal falls from 0.953 enrichment R to 0.884 enrichment R.
